The list shows a part of the results.
Columns and labels:
HSkMC = human skeletal muscle cells; test: cytotoxicity call (relative viability < 0.9); settings: 10 µM
HepG2 = test: cytotoxicity call (relative viability < 0.9); settings: 10 µM
S. aureus RN4220 = test: growth inhibition call (relative growth <= 0.2); settings: 50 µM

| Structure (SMILES) | cytotoxicity call (HSkMC) | cytotoxicity call (HepG2) | growth inhibition call (S. aureus RN4220) |
| --- | --- | --- | --- |
| C[C@H](CO)N1C[C@H](C)[C@@H](CN(C)S(=O)(=O)c2ccccc2)Oc2ccc(NC(=O)Cn3cnnn3)cc2CC1=O | inactive | inactive | inactive |
| Cc1noc(C)c1NC(=O)Nc1ccc2c(c1)C(=O)N([C@H](C)CO)C[C@H](C)[C@H](CN(C)C(=O)Cc1ccccc1)OCCCC[C@@H](C)O2 | inactive | inactive | inactive |
| OCCCn1cnnc1 | inactive | inactive | inactive |
| COC(=O)C[C@@H]1CC[C@@H]2[C@H](COC[C@@H](O)CN2S(=O)(=O)c2ccccc2C)O1 | inactive | inactive | inactive |
| Cc1noc(C)c1NC(=O)Nc1ccc2c(c1)C(=O)N([C@@H](C)CO)C[C@H](C)[C@H](CN(C)S(=O)(=O)c1c(C)noc1C)O2 | inactive | inactive | inactive |
| COc1ccc(NC(=O)N(C)C[C@@H]2OCCCC[C@@H](C)Oc3ccc(NC(=O)NC(C)C)cc3C(=O)N([C@@H](C)CO)C[C@H]2C)cc1 | inactive | inactive | inactive |
| C[C@H]1CN([C@@H](C)CO)C(=O)c2cc(NC(=O)c3ccncc3)ccc2O[C@@H]1CN(C)S(=O)(=O)c1cn(C)cn1 | inactive | inactive | inactive |
| Cc1noc(C)c1S(=O)(=O)Nc1ccc2c(c1)C(=O)N([C@H](C)CO)C[C@H](C)[C@H](CN(C)Cc1ccccc1)OCCCC[C@@H](C)O2 | inactive | inactive | inactive |
| NCCCC(N)C(=O)O.NCCCC(N)C(=O)O.O=C(O)CCC(=O)C(=O)O | inactive | inactive | inactive |
| C[C@@H]1CN([C@@H](C)CO)C(=O)c2cc(NS(=O)(=O)c3cccs3)ccc2O[C@H]1CN(C)C(=O)Nc1cccc2ccccc12 | inactive | inactive | inactive |
| Cc1ccc(S(=O)(=O)N(C)C[C@@H]2OCCCC[C@H](C)Oc3ccc(NC(=O)Nc4ccccc4)cc3C(=O)N([C@H](C)CO)C[C@@H]2C)cc1 | inactive | inactive | inactive |
| C=CCC(N)(CC=C)c1ccc(C)cc1 | inactive | inactive | inactive |
| COc1ccc(CN(C)C[C@@H]2Oc3ccc(NC(=O)Nc4ccc(C(F)(F)F)cc4)cc3C(=O)N([C@@H](C)CO)C[C@H]2C)cc1 | active | active | inactive |
| C[C@H](CO)N1C[C@H](C)[C@@H](CN(C)S(C)(=O)=O)Oc2c(NC(=O)c3nc4ccccc4s3)cccc2C1=O | inactive | inactive | inactive |
| C[C@H](CO)N1C[C@H](C)[C@@H](CN(C)C(=O)Nc2ccc(F)cc2)OCCCC[C@H](C)Oc2ccc(NC(=O)Cc3ccccc3)cc2C1=O | inactive | inactive | inactive |
| C[C@@H]1CN([C@H](C)CO)S(=O)(=O)c2ccc(C#Cc3ccccc3)cc2O[C@@H]1CN(C)C(=O)c1ccccn1 | inactive | inactive | inactive |
| COc1ccc(-c2cnc3c(c2)C(=O)N([C@H](C)CO)C[C@H](C)[C@@H](CN(C)C(=O)C2CCOCC2)O3)cc1 | inactive | inactive | inactive |
| CCOC(=O)CC1(N)CCCCC1 | inactive | inactive | inactive |
| C[C@@H]1CCCCO[C@H](CN(C)C(=O)Nc2cccc3ccccc23)[C@@H](C)CN([C@H](C)CO)C(=O)c2cc(NC(=O)c3ccncc3)ccc2O1 | inactive | inactive | inactive |
| CC(C)NC(=O)Nc1ccc2c(c1)C(=O)N([C@H](C)CO)C[C@@H](C)[C@@H](CN(C)Cc1ccccc1)OCCCC[C@@H](C)O2 | inactive | inactive | inactive |
| C[C@@H]1CCCCO[C@@H](CN(C)C(=O)Nc2ccc(F)cc2)[C@H](C)CN([C@@H](C)CO)C(=O)c2cc(NC(=O)CCC(F)(F)F)ccc2O1 | inactive | inactive | inactive |
| COc1cc(NS(=O)(=O)c2ccc(N)cc2)ncn1 | inactive | inactive | inactive |
| C[C@@H]1CN([C@@H](C)CO)C(=O)Cc2cc(NC(=O)Cc3cn(C)c4ccccc34)ccc2O[C@@H]1CN(C)S(=O)(=O)c1cn(C)cn1 | inactive | inactive | inactive |
| COCC(=O)N(C)C[C@H]1Oc2cc(C#C[C@@H](C)O)ccc2S(=O)(=O)N([C@@H](C)CO)C[C@@H]1C | inactive | inactive | inactive |
| CN1C[C@@H](O)COC[C@@H]2O[C@H](CC(=O)N3CCN(c4ccccc4)CC3)CC[C@H]21 | inactive | inactive | inactive |
| Cc1noc(C)c1NC(=O)Nc1ccc2c(c1)CC(=O)N([C@H](C)CO)C[C@H](C)[C@@H](CN(C)Cc1ccc(-c3ccccc3)cc1)O2 | inactive | inactive | inactive |
| COc1ccc(S(=O)(=O)N(C)C[C@@H]2Oc3ccc(NS(=O)(=O)c4cccs4)cc3C(=O)N([C@H](C)CO)C[C@H]2C)cc1 | inactive | inactive | inactive |

| Structure (SMILES) | cytotoxicity call (HSkMC) | cytotoxicity call (HepG2) | growth inhibition call (S. aureus RN4220) |
| --- | --- | --- | --- |
| C[C@H](CO)N1C[C@H](C)[C@@H](CN(C)S(=O)(=O)c2ccc(F)cc2)Oc2c(NC(=O)Nc3ccc(C(F)(F)F)cc3)cccc2C1=O | inactive | inactive | inactive |
| Cc1noc(C)c1NC(=O)N(C)C[C@H]1Oc2ccc(NS(=O)(=O)c3cn(C)cn3)cc2CC(=O)N([C@H](C)CO)C[C@H]1C | inactive | inactive | inactive |
| C[C@H](CO)N1C[C@H](C)[C@@H](CN(C)C(=O)Nc2cccc3ccccc23)Oc2ccc(NC(=O)Nc3ccc(F)cc3)cc2C1=O | inactive | inactive | inactive |
| C[C@H](CO)N1C[C@H](C)[C@H](CN(C)S(=O)(=O)c2cccc(F)c2)Oc2ncc(C#CC(C)(C)O)cc2C1=O | inactive | inactive | inactive |
| C[C@@H]1CN([C@H](C)CO)C(=O)c2cccc(NS(=O)(=O)c3ccc(F)cc3)c2O[C@@H]1CN(C)S(=O)(=O)c1cn(C)cn1 | inactive | inactive | inactive |
| C[C@@H]1CCCCO[C@@H](CN(C)S(=O)(=O)c2ccccc2)[C@@H](C)CN([C@@H](C)CO)C(=O)c2cc(NC(=O)C3CCCCC3)ccc2O1 | inactive | inactive | inactive |
| Cc1noc(C)c1S(=O)(=O)Nc1ccc2c(c1)C(=O)N([C@@H](C)CO)C[C@H](C)[C@@H](CN(C)Cc1ccc(C(=O)O)cc1)O2 | inactive | inactive | inactive |
| CN1CCN(C(=O)C[C@@H]2CC[C@H]3[C@@H](COC[C@H](O)CN3CC3CCCC3)O2)CC1 | inactive | inactive | inactive |
| C[C@@H]1CN([C@@H](C)CO)C(=O)c2cccc(NC(=O)CCCCCC(=O)Nc3ccccc3N)c2O[C@@H]1CN(C)CC1CCCCC1 | inactive | active | inactive |
| C[C@H]1CCCCO[C@H](CN(C)CC2CCCCC2)[C@@H](C)CN([C@@H](C)CO)C(=O)c2cc(NC(=O)Nc3cccc4ccccc34)ccc2O1 | active | active | inactive |
| C[C@@H]1CN([C@H](C)CO)C(=O)c2cccc(NC(=O)Nc3cccc4ccccc34)c2O[C@@H]1CN(C)C(=O)Nc1ccc(C(F)(F)F)cc1 | active | active | inactive |
| CC(C)NC(=O)N(C)C[C@H]1Oc2ccc(NS(=O)(=O)c3ccc(Cl)cc3)cc2CC(=O)N([C@H](C)CO)C[C@H]1C | inactive | inactive | inactive |
| O=C(C[C@@H]1CC[C@H]2[C@@H](COC[C@H](O)CN2C(=O)c2ccccc2)O1)N1CCOCC1 | inactive | inactive | inactive |
| CC(=O)Oc1cccc2c1C(=O)c1c(OC(C)=O)cc(C(=O)O)cc1C2=O | inactive | inactive | inactive |
| C[C@@H]1CN([C@H](C)CO)C(=O)c2cc(NC(=O)NC3CCCCC3)ccc2O[C@@H](C)CCCCO[C@@H]1CN(C)S(=O)(=O)c1ccc(Cl)cc1 | inactive | inactive | inactive |
| CC(=O)OC1CC(OC(C)=O)C2(C)C(CC(OC(C)=O)C3(C)C4=CC(=O)OC(c5ccoc5)C4(C)CCC32)C1(C)C (configuration not stated) | inactive | inactive | inactive |
| COc1cccc(NC(=O)N(C)C[C@@H]2Oc3cc(C#Cc4ccncc4)ccc3S(=O)(=O)N([C@@H](C)CO)C[C@H]2C)c1 | inactive | active | inactive |
| Cc1noc(C)c1NC(=O)N(C)C[C@@H]1Oc2ccc(NC(=O)c3ccncc3)cc2C(=O)N([C@H](C)CO)C[C@@H]1C | inactive | inactive | inactive |
| C[C@@H]1CCCCO[C@@H](CN(C)C(=O)c2ccccc2)[C@H](C)CN([C@@H](C)CO)C(=O)c2cc(NC(=O)Nc3ccc(F)cc3)ccc2O1 | inactive | inactive | inactive |
| COCCN1CCC(N(Cc2ccc(-c3ccc(C(F)(F)F)cc3)cc2)C(=O)Cn2c(SCc3cccc(F)c3F)cc(=O)c3ccccc32)CC1 | active | active | inactive |
| C[C@H]1CN([C@@H](C)CO)C(=O)Cc2cc(NS(=O)(=O)c3cccs3)ccc2O[C@@H]1CN(C)Cc1ccc(Cl)c(Cl)c1 | inactive | inactive | inactive |
| C[C@@H]1CN([C@H](C)CO)C(=O)c2cccc(NC(=O)c3cnccn3)c2O[C@@H]1CN(C)S(C)(=O)=O | inactive | inactive | inactive |
| C[C@@H]1CCCCO[C@H](CN(C)S(=O)(=O)c2ccc(F)cc2)[C@@H](C)CN([C@@H](C)CO)C(=O)c2cc(NC(=O)Nc3ccc(C(F)(F)F)cc3)ccc2O1 | inactive | inactive | inactive |
| C[C@H](CO)N1C[C@H](C)[C@H](CN(C)S(=O)(=O)c2ccc(F)cc2)OCCCC[C@H](C)Oc2ccc(NC(=O)Cc3ccccc3)cc2C1=O | inactive | inactive | inactive |
| NCCCCC(=O)O | inactive | inactive | inactive |
| Cc1ccc(NC(=O)c2cc(=O)[nH]c(=O)[nH]2)cc1 | inactive | inactive | inactive |
| CC=Cc1ccc2n(c1=O)C[C@H]1[C@H](CO)[C@@H](C(=O)NCC)[C@@H]2N1S(=O)(=O)c1cn(C)cn1 | inactive | inactive | inactive |
